In PubChem BioAssay AID463173 (ICCB-Longwood Screening Facility, Harvard Medical School, 2010):
Among all 52,000 compounds or so, about 1,700 (3.3%) were called active. Cut-off read from the data, not from the text of the source: active = survival mostly below about 52% (no sharp cut-off); inactive = mostly above about 56%. The list shows a part of the results.

system: Wild type; test: growth inhibition of S. aureus wild type versus tarO mutant, primary screen, teichoic acid synthesis inhibitors, RN4220, OD600 (AID 463173); details: S. aureus RN4220 wild type/DeltatarO growth, OD600, 18 h, hits give low values, screened at 18.75 µg/mL (by protocol)

Structure (SMILES)	survival
Cc1ccc(NC(=O)CCn2c(=O)c3cccn3c3ccccc32)c(Cl)c1	inactive: 73%
COc1ccc(CCNC(=O)CCc2c(C)nc3c(c(C)nn3-c3ccc(C)c(C)c3)c2C)c(OC)c1OC	inactive: 91%
CCOC(=O)C1CCC(CN(Cc2ccccc2)S(=O)(=O)c2ccc(Cl)cc2)CC1 (stereo not drawn)	inactive: 82%
CCOc1ccc(-n2c(-c3ccc(C)cc3)nc3c(cnn3-c3ccccc3)c2=O)cc1	inactive: 63%
CCN(CC)CCC(=O)c1ccc(OC(C)C)cc1	inactive: 106%
COc1ccc(CCNC(=O)Cn2cc(C(=O)c3ccccc3)c(=O)c3ccc(C)nc32)cc1OC	inactive: 135%
CCOC(=O)c1c(S(=O)(=O)N2CCC(C(=O)Nc3ccccc3OC)CC2)c(C)n(CC)c1C	inactive: 71%
CCn1cc(C(=O)NCCc2ccc(C)cc2)c(=O)c2cc(S(=O)(=O)N(C)C)ccc21	inactive: 84%
Cc1cc(C)c(Cn2c3ccccc3c3cnn(CC(=O)N4CCCCC4)c(=O)c32)c(C)c1	inactive: 125%
Cc1ccccc1C(=O)Nc1ccccc1C(=O)OCc1cc(=O)n2ccsc2n1	inactive: 98%
CN1C(=O)CC(=O)N(C)c2cc(S(=O)(=O)N(C)Cc3ccccc3)ccc21	inactive: 24%
COc1cccc(N2CC(NC(=O)Cc3cccs3)CC2=O)c1 (stereo not drawn)	inactive: 73%
CCOc1ccc(OCC)c(Nc2nc3ccccc3c3nnc(C)n23)c1	inactive: 81%
Cc1c(Cl)cccc1NS(=O)(=O)c1ccc2[nH]cc(C(=O)NC3CCCC3)c(=O)c2c1	active: 11%
CCCCN(CCCC)CCNC(=O)c1cn(C)c2ccc(S(=O)(=O)N3CCOCC3)cc2c1=O	inactive: 84%
CC(=O)c1cccc(NS(=O)(=O)c2ccc3[nH]c4c(c3c2)CCCCCC4)c1	inactive: 63%
Cc1ccc(-n2ncc(C(=O)NCCN3CCN(C)CC3)c2C2CCN(C(=O)OC(C)(C)C)CC2)c(C)c1	inactive: 79%
Cc1ccc(S(=O)(=O)c2nc(-c3cccs3)oc2N2CCCCC2)cc1	inactive: 50%
COc1ccc2c(c1)c1c(c(=O)n(-c3ccc(OC)c(OC)c3)c(=O)n1Cc1ccccc1C)n2C	inactive: 73%
O=C(O)CC(c1ccc(F)cc1)c1ccco1 (stereo not drawn)	inactive: 106%
N#CC1=C(N)SC(N)=C(C#N)C1CCC1CCCCC1	inactive: 49%
COc1ccc(N(C(=O)/C=C\C(=O)Nc2ccc(Cl)cc2)C(C(=O)NCc2ccco2)c2ccc(C)cc2)cc1 (stereo not drawn)	inactive: 111%
COc1ccc(NC(=O)CCS(=O)(=O)c2nc(-c3cccs3)cc(C(F)(F)F)n2)cc1OC	inactive: 100%
CN(Cc1ccccc1)C(=O)CN1C(=O)CSc2ccc(S(=O)(=O)N3CCOCC3)cc21	inactive: 75%
COc1ccc(OC)c(S(=O)(=O)Nc2cc3c(cc2C)n(C)c(=O)c(=O)n3C)c1	inactive: 82%
CCc1ccc(-c2cn3c(n2)sc2cc(C(=O)NCCc4ccc(OC)cc4OC)ccc23)cc1	inactive: 78%
COc1ccccc1NC(=O)Cn1c(=O)n(Cc2ccc3c(c2)OCO3)c(=O)c2oc3ccccc3c21	inactive: 74%

Structure (SMILES)	survival
O=C(c1noc2c1CCCCC2)N1CCN(c2ccc(Cl)cc2)CC1	inactive: 73%
c1ccc(Cn2nnnc2C(c2ccccc2)N2CCN(Cc3ccncc3)CC2)cc1 (stereo not drawn)	inactive: 100%
C#CC(C)(C)NS(=O)(=O)c1cc(-c2nnc(Nc3ccc(C)cc3)c3ccccc23)ccc1C	inactive: 96%
Cc1ccc(NC(=O)NCc2ccc3c(c2)CCN3C(=O)c2ccccc2)c(Cl)c1	inactive: 84%
Cc1ccc(NC(=O)CN(c2ccccc2)S(=O)(=O)N(C)C)cc1Cl	inactive: 67%
COc1ccc(NC(=O)c2cn(CC(C)C)c(=O)c3cc(OC)c(OC)cc23)cc1Cl	inactive: 67%
NS(=O)(=O)c1ccc(CCNC(=O)CCCCCn2c(=O)[nH]c3ccccc3c2=O)cc1	inactive: 83%
COc1ccc2oc(=O)c(C(=O)NCc3cccnc3)cc2c1	inactive: 96%
Cc1ccc(NC(=O)c2nn(C)c3c2CS(=O)(=O)c2ccccc2-3)c(Cl)c1	inactive: 86%
O=C(CCCCCn1c(=O)c2sccc2n(CC(=O)Nc2cccc(Cl)c2)c1=O)NCc1ccc2c(c1)OCO2	inactive: 67%
CCCC(=O)C1=C(O)C(C(=O)OC)C(C)(C)CC1=N (stereo not drawn)	inactive: 111%
COc1ccc(-c2nc3c(c(SCC(=O)Nc4ccc(C(=O)O)cc4)n2)Cc2ccccc2O3)cc1	inactive: 75%
CCOC(=O)Cc1ccc(NC(=O)Nc2cccc(OCc3cc(=O)n4cc(C)ccc4n3)c2)cc1	inactive: 81%
Cc1nc(N2CCOCC2)c2c(C(=O)NCc3cccc(Cl)c3)c(C)oc2n1	inactive: 73%
Oc1c(C(c2ccccc2)N2CCC3(CC2)OCCO3)sc2nc(-c3ccco3)nn12 (stereo not drawn)	inactive: 73%
CCc1c(C)sc2c1CCN(C(=O)Nc1cc(OC)c(OC)c(OC)c1)C2c1ccccc1 (stereo not drawn)	inactive: 19%
COc1cccc(C(=O)NC2(C(F)(F)F)C(=O)Nc3c2c(=O)[nH]c(=O)n3-c2ccc(C)cc2)c1 (stereo not drawn)	inactive: 78%
CCc1cccc(NC(=O)CSc2ncc3c(n2)-c2ccc(Cl)cc2N(Cc2ccccc2)S3(=O)=O)c1	inactive: 101%
CCc1ccc(NC(=O)C(NS(=O)(=O)c2cccs2)C(C)C)cc1 (stereo not drawn)	inactive: 75%
CCCCN(C)CCNC(=O)c1ccc2c(=O)n(CCc3ccccc3)c(=O)[nH]c2c1	inactive: 75%
CCOC(=O)c1sc(N(C)C(C)=O)nc1C	inactive: 112%
Cn1c(=O)c2c(-c3ccccc3)n3c(c2n(C)c1=O)C(c1ccccc1[N+](=O)[O-])Nc1ccccc1-3 (stereo not drawn)	inactive: 76%
Cn1c(=O)c2c(c3ccccc31)OC(=O)CC2c1ccc(C(F)(F)F)cc1 (stereo not drawn)	inactive: 72%
CCc1ccc2[nH]c(=O)c(CN(CCO)C(=S)NCc3ccco3)cc2c1	inactive: 130%
Cc1ccc(C(C(=O)NC2CCCCC2)N(C(=O)C2COc3ccccc3O2)c2ccc3c(c2)OCO3)o1 (stereo not drawn)	inactive: 101%
C=CCn1c(N2CCC(C(N)=O)CC2)nc2c1c(=O)n(C)c(=O)n2C	inactive: 97%
